Reference: PMC12820563
This is one part of the list. The list includes weakly bound sequences.

target: T1, MBP-FoxP3dN (UniProt Q99JB6); assay: PD-seq (MBP pull-down with sequencing); conditions: 20 mM Tris-HCl pH 7.5, 100 mM NaCl, 1.5 mM MgCl2, 0.4 uM protein, 0.1 uM dsDNA library, 30 min, room temperature, amylose pull-down; high values mean tight binding; double strand, one strand shown
T1 sequence: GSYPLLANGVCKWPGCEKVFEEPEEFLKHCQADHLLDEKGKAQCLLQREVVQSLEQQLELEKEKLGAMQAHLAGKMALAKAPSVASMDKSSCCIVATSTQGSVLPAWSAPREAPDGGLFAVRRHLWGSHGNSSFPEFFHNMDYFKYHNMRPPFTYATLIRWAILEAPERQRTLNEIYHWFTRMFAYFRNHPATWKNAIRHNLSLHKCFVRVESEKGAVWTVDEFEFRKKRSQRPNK

| Sequence | binding signal (RPM ratio (pull-down/input)) |
| --- | --- |
| GATGATTGTTCTCCCAGCTGATGAATTAATTTGGTCGAGTAAACAAATTTTCCTAATCTTTCTGTTCAAGCGCCATCTAC | 2.36 |
| GATGATTGTTCTCCCAGCTGATGAATTAACTTGCTCGAGTAAACAAATTTTCCTAATCTTTCTGTTCAAGCGCCATCTAC | 0.442 |
| GATGATTGTTCTCCCAGCTGATGAATTCTTGCGTTCGAGTAAACAAATTTTCCTAATCTTTCTGTTCAAGCGCCATCTAC | 1.43 |
| GATGATTGTTCTCCCAGCTGATGAATTGTGCGGCTCGAGTAAACAAATTTTCCTAATCTTTCTGTTCAAGCGCCATCTAC | 1.63 |
| GATGATTGTTCTCCCAGCTGATGAATTGTTTTCATCGAGTAAACAAATTTTCCTAATCTTTCTGTTCAAGCGCCATCTAC | 3.3 |
| GATGATTGTTCTCCCAGCTGATGAATTAGGTACATCGAGTAAACAAATTTTCCTAATCTTTCTGTTCAAGCGCCATCTAC | 0.56 |
| GATGATTGTTCTCCCAGCTGATGAATTTGTGAATTCGAGTAAACAAATTTTCCTAATCTTTCTGTTCAAGCGCCATCTAC | 1.45 |
| GATGATTGTTCTCCCAGCTGATGAATTAGTAGATTCGAGTAAACAAATTTTCCTAATCTTTCTGTTCAAGCGCCATCTAC | 0.723 |
| GATGATTGTTCTCCCAGCTGATGAATTGGGACCTTCGAGTAAACAAATTTTCCTAATCTTTCTGTTCAAGCGCCATCTAC | 0.351 |
| GATGATTGTTCTCCCAGCTGATGAATTGATGCTTTCGAGTAAACAAATTTTCCTAATCTTTCTGTTCAAGCGCCATCTAC | 2.5 |
| GATGATTGTTCTCCCAGCTGATGAATTGGTGCCTTCGAGTAAACAAATTTTCCTAATCTTTCTGTTCAAGCGCCATCTAC | 2.34 |
| GATGATTGTTCTCCCAGCTGATGAATTATAACGTTCGAGTAAACAAATTTTCCTAATCTTTCTGTTCAAGCGCCATCTAC | 0.573 |
| GATGATTGTTCTCCCAGCTGATGAATTGAGCATTTCGAGTAAACAAATTTTCCTAATCTTTCTGTTCAAGCGCCATCTAC | 6.08 |
| GATGATTGTTCTCCCAGCTGATGAATTGCCATTTTCGAGTAAACAAATTTTCCTAATCTTTCTGTTCAAGCGCCATCTAC | 1.02 |
| GATGATTGTTCTCCCAGCTGATGAATTAGAGTTCTCGAGTAAACAAATTTTCCTAATCTTTCTGTTCAAGCGCCATCTAC | 0.722 |
| GATGATTGTTCTCCCAGCTGATGAATTTGTCCTATCGAGTAAACAAATTTTCCTAATCTTTCTGTTCAAGCGCCATCTAC | 2.73 |
| GATGATTGTTCTCCCAGCTGATGAATTGAGCGCTTCGAGTAAACAAATTTTCCTAATCTTTCTGTTCAAGCGCCATCTAC | 0.62 |
| GATGATTGTTCTCCCAGCTGATGAATTACAGTATTCGAGTAAACAAATTTTCCTAATCTTTCTGTTCAAGCGCCATCTAC | 1.22 |
| GATGATTGTTCTCCCAGCTGATGAATTACGGGAGTCGAGTAAACAAATTTTCCTAATCTTTCTGTTCAAGCGCCATCTAC | 0.305 |
| GATGATTGTTCTCCCAGCTGATGAATTCATCCCGTCGAGTAAACAAATTTTCCTAATCTTTCTGTTCAAGCGCCATCTAC | 0.339 |

| Sequence | binding signal (RPM ratio (pull-down/input)) |
| --- | --- |
| GATGATTGTTCTCCCAGCTGATGAATTGCTTATTTCGAGTAAACAAATTTTCCTAATCTTTCTGTTCAAGCGCCATCTAC | 2.46 |
| GATGATTGTTCTCCCAGCTGATGAATTCGAAAGCTCGAGTAAACAAATTTTCCTAATCTTTCTGTTCAAGCGCCATCTAC | 0.226 |
| GATGATTGTTCTCCCAGCTGATGAATTAAATGAATCGAGTAAACAAATTTTCCTAATCTTTCTGTTCAAGCGCCATCTAC | 0.236 |
| GATGATTGTTCTCCCAGCTGATGAATTGTTTCGATCGAGTAAACAAATTTTCCTAATCTTTCTGTTCAAGCGCCATCTAC | 0.819 |
| GATGATTGTTCTCCCAGCTGATGAATTTTCATCTTCGAGTAAACAAATTTTCCTAATCTTTCTGTTCAAGCGCCATCTAC | 0.357 |
| GATGATTGTTCTCCCAGCTGATGAATTTGCCTGTTCGAGTAAACAAATTTTCCTAATCTTTCTGTTCAAGCGCCATCTAC | 1.19 |
| GATGATTGTTCTCCCAGCTGATGAATTTAGACGTTCGAGTAAACAAATTTTCCTAATCTTTCTGTTCAAGCGCCATCTAC | 0.567 |
| GATGATTGTTCTCCCAGCTGATGAATTTTTCTGGTCGAGTAAACAAATTTTCCTAATCTTTCTGTTCAAGCGCCATCTAC | 0.207 |
| GATGATTGTTCTCCCAGCTGATGAATTCCCCTACTCGAGTAAACAAATTTTCCTAATCTTTCTGTTCAAGCGCCATCTAC | 0.276 |
| GATGATTGTTCTCCCAGCTGATGAATTTCCGTAGTCGAGTAAACAAATTTTCCTAATCTTTCTGTTCAAGCGCCATCTAC | 0.299 |
| GATGATTGTTCTCCCAGCTGATGAATTTGTGTTTTCGAGTAAACAAATTTTCCTAATCTTTCTGTTCAAGCGCCATCTAC | 5.24 |
| GATGATTGTTCTCCCAGCTGATGAATTATGTGACTCGAGTAAACAAATTTTCCTAATCTTTCTGTTCAAGCGCCATCTAC | 1.8 |
| GATGATTGTTCTCCCAGCTGATGAATTTATAAGGTCGAGTAAACAAATTTTCCTAATCTTTCTGTTCAAGCGCCATCTAC | 0.412 |
| GATGATTGTTCTCCCAGCTGATGAATTACTCTACTCGAGTAAACAAATTTTCCTAATCTTTCTGTTCAAGCGCCATCTAC | 0.302 |
| GATGATTGTTCTCCCAGCTGATGAATTCCGGCATTCGAGTAAACAAATTTTCCTAATCTTTCTGTTCAAGCGCCATCTAC | 4.43 |
| GATGATTGTTCTCCCAGCTGATGAATTACAAGAATCGAGTAAACAAATTTTCCTAATCTTTCTGTTCAAGCGCCATCTAC | 0.298 |
| GATGATTGTTCTCCCAGCTGATGAATTAACTCCCTCGAGTAAACAAATTTTCCTAATCTTTCTGTTCAAGCGCCATCTAC | 0.259 |
| GATGATTGTTCTCCCAGCTGATGAATTCTTAAGATCGAGTAAACAAATTTTCCTAATCTTTCTGTTCAAGCGCCATCTAC | 0.196 |
| GATGATTGTTCTCCCAGCTGATGAATTTATTCGCTCGAGTAAACAAATTTTCCTAATCTTTCTGTTCAAGCGCCATCTAC | 0.584 |
| GATGATTGTTCTCCCAGCTGATGAATTCGCTTGTTCGAGTAAACAAATTTTCCTAATCTTTCTGTTCAAGCGCCATCTAC | 3.3 |
